PubChem BioAssay AID624296 (National Center for Advancing Translational Sciences (NCATS), 2012)
Hit rate of the full screen: of about 350,000 compounds, about 9,900 (2.8%) were called active. The inconclusive results got no clear call from the source; some entries with a clear call stand among them for comparison. The call rests on the fitted dose curve; in most records, active means well fitted activation curve with a large enough effect; inconclusive means small, poorly fitted or top-dose-only effect; inactive means no such curve, though single readings can be large or run the other way. No potency is given beside an inconclusive call; the fits are too rough.

experiment: A quantitative high throughput screen for small molecules that induce DNA re-replication in MCF 10a normal breast cells.; further: nearly all actives have a fitted effect of over 50% in size; conditions: MCF 10A DNA re-replication, Hoechst nuclear intensity, 48 h; series mostly up to 46.1 µM
Potency means the concentration at half of the fitted maximal effect; tags describe the fitted curve by direction and shape.

Question: Which Potency does the source give for `O=C(O)CN1C(=O)/C(=C\c2cc(Br)ccc2OCc2ccccc2F)SC1=S` here?
Answer: active: 18.4 µM

Question: With `COc1ccc(NC(=O)CSc2nc3ccccc3c3nc4ccccc4n23)cc1` as the compound, how does the Potency read?
Answer: inconclusive [activator, full curve]

Question: Which Potency does the source give for `COc1ccccc1-c1nnc(SCC(=O)N2CC(C)CC(C)C2)o1` (stereo not given) here?
Answer: inconclusive [activator, partial curve, poor fit]

Question: For `Cc1cccc(-c2nc(Nc3cccc(O)c3)c3ccccc3n2)c1`, which Potency is on record?
Answer: active: 20.6 µM

Question: For `O=C(Nc1ccc(Oc2cccc(C(F)(F)F)c2)nc1)c1cccs1`, which Potency is on record?
Answer: inconclusive [activator, partial curve, poor fit]

Question: With `Cc1ccc(C(=O)N(CCN(C)C)CC2CCCN(Cc3ccccc3F)C2)cc1C` (stereo not given) as the compound, how does the Potency read?
Answer: inconclusive [activator, partial curve, poor fit]

Question: With `Cc1nnc2sc(-c3ccncc3)nn12` as the compound, how does the Potency read?
Answer: inactive

Question: For `CC(=O)c1ccc(N2CCN(CC(O)COC(c3ccccc3)c3ccccc3)CC2)cc1` (stereo not given), which Potency is on record?
Answer: inconclusive [activator, full curve, poor fit]

Question: With `O=C(NC(=S)NCCN1CCOCC1)c1ccccc1` as the compound, how does the Potency read?
Answer: inactive

Question: Which Potency does the source give for `CCn1cc(/C=C(\NC(=O)c2ccc(OC)cc2)C(=O)N2CCOCC2)c2ccccc21` here?
Answer: inconclusive [activator, partial curve, poor fit]

Question: For `Cc1ccc(C(C)C)c(OCC(=O)Nc2ccc3c(c2)nc(CN2CCCC2)n3C)c1`, which Potency is on record?
Answer: inconclusive [activator, single point]

Question: With `COc1ccc(-c2cc(C(=O)OCC(=O)Nc3cc(C)on3)c3ccccc3n2)cc1OC` as the compound, how does the Potency read?
Answer: inconclusive [activator, single point]

Question: For `COC(=O)c1ccc(CNCC(O)COc2ccc(-c3ccccc3)cc2)cc1` (stereo not given), which Potency is on record?
Answer: inconclusive [activator, single point]

Question: With `COc1cc(-n2c(=O)c3ccccc3n(CC(=O)c3ccc(Br)cc3)c2=O)cc(OC)c1OC` as the compound, how does the Potency read?
Answer: inconclusive [activator, partial curve, poor fit]

Question: Which Potency does the source give for `CC(C)(C)OC(=O)N1CCC[C@H]1C(=O)O` here?
Answer: inactive

Question: For `COc1ccc(CN2CCCC(CNC(=O)c3ccc(F)cc3)C2)c(C)c1C` (stereo not given), which Potency is on record?
Answer: inconclusive [activator, partial curve, poor fit]

Question: With `O=C(Cn1nnc2ccccc2c1=O)N1CCOCC1` as the compound, how does the Potency read?
Answer: inconclusive [activator, partial curve, poor fit]

Question: For `CCN1CCN(Cc2ccc(NC(=O)c3ccc(C)c(NC(=O)c4cncc(-c5cccs5)c4)c3)cc2C(F)(F)F)CC1`, which Potency is on record?
Answer: active: 5.17 µM

Question: Which Potency does the source give for `COc1ccc(Cl)cc1NC(=S)NCCSc1ccc(C)cc1` here?
Answer: active: 23.1 µM

Question: Which Potency does the source give for `C=C(C)CNC(=S)NNC(=O)CCn1c2cc(Cl)ccc2c2ccc(Cl)cc21` here?
Answer: inconclusive [activator, single point]

Question: For `COc1ccc(NC(=S)N2CCc3ccccc32)cc1OC`, which Potency is on record?
Answer: inactive

Question: With `CCn1c(=S)[nH]c2scc(-c3cccs3)c2c1=O` as the compound, how does the Potency read?
Answer: inconclusive [activator, single point]

Question: With `Cc1ccc2cc(C)c(SCC(=O)Nc3ccc(S(=O)(=O)N4CCCC4)cc3)nc2c1` as the compound, how does the Potency read?
Answer: inactive

Question: For `O=C(O)CC1(CC(=O)NCc2ccc(Cl)cc2)CCCCC1`, which Potency is on record?
Answer: active: 20.6 µM

Question: For `Cc1cccc2sc(N(CCCN(C)C)C(=O)COc3ccc(Cl)cc3)nc12`, which Potency is on record?
Answer: inactive

Question: Which Potency does the source give for `Cc1ccc(-c2nc(NC(=O)c3cc(C(C)(C)C)nn3C)sc2C)cc1Cl` here?
Answer: inactive

Question: With `Nc1ccc(C#Cc2ccc3c(=O)c4ccccc4oc3c2)cc1` as the compound, how does the Potency read?
Answer: inconclusive [activator, full curve, poor fit]

Question: Which Potency does the source give for `O=C1C=C(c2ccc(Cl)c(C(F)(F)F)c2)C[C@@H](c2ccc(Cl)cc2)C1` here?
Answer: inconclusive [activator, single point]

Question: For `Cc1ccc(-c2cc(-c3ccc(C)o3)nc(N)c2C#N)cc1`, which Potency is on record?
Answer: inconclusive [activator, single point]

Question: With `O=C(CC(=O)Nc1ccccc1C(F)(F)F)Nc1ccccc1C(F)(F)F` as the compound, how does the Potency read?
Answer: inactive

Question: For `O=S(=O)(/C=C/c1ccccc1)Oc1ccccc1`, which Potency is on record?
Answer: inconclusive [activator, single point]

Question: With `CCc1nnc(NC(=O)CCC(=O)NCCc2ccccc2)s1` as the compound, how does the Potency read?
Answer: inactive

Question: With `O=C(c1ccc(S(=O)(=O)N2CCCCCC2)cc1)N1CCN(c2ccccc2F)CC1` as the compound, how does the Potency read?
Answer: inconclusive [activator, partial curve]

Question: Which Potency does the source give for `CC(C)CCNC(=O)[C@H](Cc1ccccc1)N1Cc2ccccc2C1=O` here?
Answer: inactive

Question: Which Potency does the source give for `O=C(Nc1ccc2oc(-c3ccncc3)nc2c1)c1ccc2c(c1)OCO2` here?
Answer: inconclusive [activator, full curve]

Question: Which Potency does the source give for `Cc1csc(NC(=O)CCC(=O)N(CC(=O)NC2CCCC2)Cc2ccccc2)n1` here?
Answer: inactive

Question: For `Cc1ccc(NC(=O)NCC2CCN(Cc3cccc(Cl)c3)CC2)c(Cl)c1`, which Potency is on record?
Answer: inactive

Question: For `O=C(O)c1ccccc1NS(=O)(=O)c1ccc(NN=Cc2ccc(F)cc2)c([N+](=O)[O-])c1`, which Potency is on record?
Answer: inactive

Question: For `Nc1nc2ccccc2n1C(=O)c1ccc(F)cc1`, which Potency is on record?
Answer: inactive

Question: With `COc1cc(NC(=O)c2oc3ccccc3c2C)ccc1NC(=O)c1ccco1` as the compound, how does the Potency read?
Answer: active: 18.4 µM

Question: With `C=CCn1c(=O)c(C(=O)NCc2ccc3c(c2)OCO3)c(O)c2ccccc21` as the compound, how does the Potency read?
Answer: inconclusive [activator, partial curve, poor fit]

Question: For `COc1ccccc1-c1nc2ccccc2c(=O)n1NC(=O)c1cccs1`, which Potency is on record?
Answer: inconclusive [activator, single point]

Question: For `O=C(COC(=O)Cc1ccccc1[N+](=O)[O-])NC1CCCC1`, which Potency is on record?
Answer: inactive

Question: With `O=C(Nc1ccccc1)Nc1ccc(Cl)c([N+](=O)[O-])c1` as the compound, how does the Potency read?
Answer: active: 14.6 µM

Question: Which Potency does the source give for `COc1cc(OC)c(NC(=S)Nc2cc(Cl)cc(Cl)c2)cc1Cl` here?
Answer: inconclusive [activator, single point]

Question: Which Potency does the source give for `O=S(=O)(N1CCCCCC1)N1CCNCC1` here?
Answer: inactive

Question: For `Cn1c(O)c(N=NC(=O)Cn2c(C(F)(F)F)nc3ccccc32)c2ccccc21`, which Potency is on record?
Answer: inconclusive [activator, partial curve, poor fit]

Question: Which Potency does the source give for `Cc1ccc(CCC(=O)Nc2ccccc2F)s1` here?
Answer: inactive

Question: Which Potency does the source give for `CN(C)CCCNc1c2c(nc3cc(-c4cccc(F)c4)nn13)CCC2` here?
Answer: inconclusive [activator, single point]

Question: Which Potency does the source give for `CCCSc1ccc([C@H]2N[C@@](CC(C)C)(C(=O)OC)[C@H]3C(=O)N(C)C(=O)[C@@H]23)cc1` here?
Answer: inconclusive [activator, single point]

Question: For `Cc1cccc(N2N=C(C(=O)Nc3nc(C)cs3)CCC2=O)c1`, which Potency is on record?
Answer: inactive

Question: Which Potency does the source give for `COc1cc(C(=S)N2CCN(C(c3ccccc3)c3ccccc3)CC2)cc(OC)c1O` here?
Answer: inconclusive [activator, single point]

Question: For `CCOC(=O)c1sc(N(Cc2ccccc2)C(=O)COC(=O)c2ccc(O)cc2)nc1C`, which Potency is on record?
Answer: active: 9.2 µM

Question: For `Cc1cc(C)cc(OCC(=O)Nc2ccc3c4c(cccc24)CC3)c1`, which Potency is on record?
Answer: inconclusive [activator, single point]

Question: For `CCOC(=O)c1[nH]c(C)c(C(=O)Nc2ccc(C)c(Cl)c2)c1C`, which Potency is on record?
Answer: active: 20.6 µM

Question: Which Potency does the source give for `Cc1c(C(=O)N2CCOCC2)sc(NC(=O)CCl)c1C#N` here?
Answer: inconclusive [activator, single point]

Question: For `CC12CCC(O)CC1=CCC1C2CCC2(C)C3=NN=CC3CC12` (stereo not given), which Potency is on record?
Answer: active: 18.4 µM

Question: With `CN(C)c1ccc(CNCCC2(O)CCOC(C)(C)C2)cc1` (stereo not given) as the compound, how does the Potency read?
Answer: inconclusive [activator, partial curve, poor fit]

Question: For `CCc1ccn2cc(-c3ccc4c(c3)OCO4)nc2c1`, which Potency is on record?
Answer: inactive

Question: With `O=C(c1ccc(C#CC2(O)CCCCC2)cc1)N1CCN(C(c2ccccc2)c2ccccc2)CC1` as the compound, how does the Potency read?
Answer: inconclusive [activator, partial curve]

Question: With `CCn1c(=O)c([N+](=O)[O-])c(NCCc2ccccc2)c2ccccc21` as the compound, how does the Potency read?
Answer: inconclusive [activator, partial curve, poor fit]

Question: Which Potency does the source give for `Cc1cccc(NC(=O)/C(C#N)=C/c2cn(CC(=O)NCc3ccco3)c3ccccc23)c1C` here?
Answer: inconclusive [activator, partial curve, poor fit]

Question: Which Potency does the source give for `CCOC(=O)c1ccccc1NC(=O)Cc1ccccc1OC` here?
Answer: inconclusive [activator, partial curve, poor fit]

Question: For `Nn1c(Cc2cccc3ccccc23)nnc1SCc1ccccc1`, which Potency is on record?
Answer: inconclusive [activator, single point]

Question: With `O=S(=O)(c1cccc2cccnc12)N1CCN(Cc2ccccc2)CC1` as the compound, how does the Potency read?
Answer: inactive

Question: With `O=c1c2ccccc2sc2ccc(NCCCN3CCOCC3)cc12` as the compound, how does the Potency read?
Answer: inconclusive [activator, single point]

Question: For `CC(/C=C/C=C(\C)C(=O)O[C@@H]1O[C@H](CO[C@@H]2O[C@H](CO)[C@@H](O)[C@H](O)[C@H]2O)[C@@H](O)[C@H](O)[C@H]1O)=C\C=C\C=C(C)\C=C\C=C(/C)C(=O)O[C@@H]1O[C@H](CO[C@@H]2O[C@H](CO)[C@@H](O)[C@H](O)[C@H]2O)[C@@H](O)[C@H](O)[C@H]1O`, which Potency is on record?
Answer: inactive

Question: Which Potency does the source give for `Cc1cc(=O)oc2cc(OCC(=O)NC(Cc3c[nH]c4ccc(O)cc34)C(=O)O)c(Cl)cc12` (stereo not given) here?
Answer: inactive

Question: Which Potency does the source give for `CC(c1ccccc1)c1nnc(NC(=O)c2ccc3c(c2)OCO3)s1` (stereo not given) here?
Answer: inconclusive [activator, full curve, poor fit]

Question: For `COc1ccc2c(COC(=O)c3n[nH]c4ccccc34)cc(=O)oc2c1`, which Potency is on record?
Answer: inconclusive [activator, single point]
